Reference: the supplement of paper PMC7826260
This is one part of the list. One pool of 16,384 single-stranded DNAs met each Rep nickase domain in vitro (1 h at 37 °C, 3 µM enzyme); the outer parts of the 90-letter strands are left off. A value is the log2 ratio of uncut reads to the pool without enzyme; more negative means more cut, near 0 not cut, and no call is made. The scaling is to total reads; where an enzyme cuts many sequences, the uncut ones exceed 0.

What was measured:
Experiment in all cases: uncleaved DNA left, log2 of reads against the no-enzyme library (log2 ratio); higher = less cleavage (more negative = more Rep cleavage of the k-mer); sequences stand for … in CTCGTCCG…ACCGGAGA
[1] = system: T1, Rep nickase domain of Muscovy duck circovirus
T1 sequence (protein, residues 1-111, tag omitted): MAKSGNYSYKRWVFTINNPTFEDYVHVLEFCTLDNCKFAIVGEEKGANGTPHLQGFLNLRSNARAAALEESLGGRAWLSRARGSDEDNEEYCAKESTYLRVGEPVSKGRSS
Experimental: (§1)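 A pool of 90-nt single-stranded DNAs with seven random bases just before the constant AC of the nick site (name = the seven bases) was cut by 3 µM recombinant His6-SUMO-tagged Rep nickase domain (300 nM DNA, 50 mM HEPES pH 8.0, 50 mM NaCl, 1 mM MnCl2, 1 h, 37 °C, three replicates). Uncut DNA was amplified and sequenced.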

[2] = system: T2, Rep nickase domain of banana bunchy top virus
T2 sequence (protein, residues 1-94, tag omitted): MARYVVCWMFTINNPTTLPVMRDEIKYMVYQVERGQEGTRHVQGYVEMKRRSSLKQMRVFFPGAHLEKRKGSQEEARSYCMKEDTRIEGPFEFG
Experimental: as §1

[3] = system: T3, Rep nickase domain of cabbage leaf curl virus
T3 sequence (protein, residues 1-116, tag omitted): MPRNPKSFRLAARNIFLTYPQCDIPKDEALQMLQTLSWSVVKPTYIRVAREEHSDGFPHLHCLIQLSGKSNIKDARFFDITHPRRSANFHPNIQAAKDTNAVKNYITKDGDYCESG
Experimental: as §1

[4] = system: T4, Rep nickase domain of chickpea chlorotic dwarf virus
T4 sequence (protein, residues 1-124, tag omitted): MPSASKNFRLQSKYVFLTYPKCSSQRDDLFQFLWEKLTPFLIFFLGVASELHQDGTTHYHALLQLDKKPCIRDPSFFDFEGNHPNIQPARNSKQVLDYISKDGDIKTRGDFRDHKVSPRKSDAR
Experimental: as §1

[5] = system: T5, Rep nickase domain of faba bean necrotic yellows virus
T5 sequence (protein, residues 1-98, tag omitted): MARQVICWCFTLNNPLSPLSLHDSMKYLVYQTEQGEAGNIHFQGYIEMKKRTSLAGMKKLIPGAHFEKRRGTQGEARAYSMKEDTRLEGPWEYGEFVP
Experimental: as §1

[6] = system: T6, Rep nickase domain of maize striate mosaic virus
T6 sequence (protein, residues 1-117, tag omitted): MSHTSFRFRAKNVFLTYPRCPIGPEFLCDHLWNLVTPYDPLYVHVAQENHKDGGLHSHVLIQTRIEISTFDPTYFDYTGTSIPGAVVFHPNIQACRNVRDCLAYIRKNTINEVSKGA
Experimental: as §1

[7] = system: T7, Rep nickase domain of porcine circovirus 2
T7 sequence (protein, residues 2-116, tag omitted): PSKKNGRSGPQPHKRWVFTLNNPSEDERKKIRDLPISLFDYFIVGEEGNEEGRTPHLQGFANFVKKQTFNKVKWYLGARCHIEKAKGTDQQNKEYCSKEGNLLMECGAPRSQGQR
Experimental: as §1

[8] = system: T8, Rep nickase domain of tomato golden mosaic virus
T8 sequence (protein, residues 1-124, tag omitted): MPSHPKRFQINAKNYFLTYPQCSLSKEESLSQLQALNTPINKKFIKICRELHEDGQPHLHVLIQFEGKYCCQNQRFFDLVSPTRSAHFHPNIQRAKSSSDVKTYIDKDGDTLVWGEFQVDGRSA
Experimental: as §1

[9] = system: T9, Rep nickase domain of tomato yellow leaf curl virus
T9 sequence (protein, residues 1-136, tag omitted): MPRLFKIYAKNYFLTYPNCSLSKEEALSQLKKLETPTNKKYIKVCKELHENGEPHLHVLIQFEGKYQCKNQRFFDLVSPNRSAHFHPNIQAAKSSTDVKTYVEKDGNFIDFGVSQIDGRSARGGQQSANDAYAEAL
Experimental: as §1

[10] = system: T10, Rep nickase domain of wheat dwarf virus
T10 sequence (protein, residues 1-137, tag omitted): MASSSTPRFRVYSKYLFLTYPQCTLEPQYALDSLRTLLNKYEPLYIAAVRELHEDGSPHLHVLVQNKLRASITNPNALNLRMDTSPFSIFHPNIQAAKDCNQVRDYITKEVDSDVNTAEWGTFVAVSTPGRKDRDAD
Experimental: as §1

| Sequence | uncleaved DNA left (log2) [1] | uncleaved DNA left (log2) [2] | uncleaved DNA left (log2) [3] | uncleaved DNA left (log2) [4] | uncleaved DNA left (log2) [5] | uncleaved DNA left (log2) [6] | uncleaved DNA left (log2) [7] | uncleaved DNA left (log2) [8] | uncleaved DNA left (log2) [9] | uncleaved DNA left (log2) [10] |
| --- | --- | --- | --- | --- | --- | --- | --- | --- | --- | --- |
| CGGAGAA | -0.0762 | -0.128 | 0.321 | 0.688 | -0.0794 | 0.505 | -0.0943 | -0.204 | -0.116 | -0.0135 |
| TGACCCT | -0.0613 | -0.0829 | 0.644 | 1.19 | -0.0461 | 1.82 | -0.115 | -0.186 | 0.0386 | 0.0308 |
| CAAGTTG | 0.025 | -0.0473 | 0.392 | 1.26 | 0.0736 | 1.42 | 0.202 | 0.0995 | -0.11 | -0.0568 |
| GGGGTGT | -0.00103 | 0.0512 | 0.756 | 1.7 | -0.00892 | 2.11 | 0.183 | -0.0562 | -0.0105 | 0.066 |
| TTAATCT | 0.0533 | 0.107 | 0.281 | -1.7 | 0.104 | -0.136 | -0.167 | -0.00214 | 0.0813 | 0.0278 |
| CCCGATC | -0.0261 | -0.105 | 0.228 | 0.256 | 0.0588 | -0.202 | -0.0711 | 0.199 | 0.0654 | -0.105 |
| ACAGCGA | -0.0603 | -0.186 | -0.322 | 0.839 | -0.0331 | 0.177 | 0.0632 | 0.0354 | 0.0492 | -0.189 |
| CTTGATA | 0.00657 | -0.0716 | 0.0232 | -1.17 | 0.148 | -0.488 | 0.0438 | 0.154 | 0.0349 | 0.129 |
| ATCTTAG | -0.0442 | 0.0461 | -0.718 | -0.316 | 0.0635 | -1.15 | 0.318 | 0.0226 | 0.0653 | 0.0216 |
| GGTATAC | 0.0972 | 0.0721 | 0.419 | 1.15 | -0.0819 | 1.85 | 0.183 | 0.0378 | 0.175 | 0.13 |
| GCTGCGT | 0.00467 | -0.111 | -0.778 | -0.0223 | 0.0209 | -0.747 | 0.143 | -0.107 | 0.0874 | -0.168 |
| TTCGTTA | -0.239 | -0.172 | 0.025 | -0.889 | -0.166 | -0.461 | -0.383 | -0.108 | -0.0716 | -0.261 |
| TTACGAC | 0.0829 | 0.00934 | 0.143 | -1.14 | 0.172 | -0.267 | 0.111 | -0.00202 | -0.0453 | 0.0198 |
| GTGAAGA | 0.0399 | 0.149 | 0.36 | 0.963 | 0.0115 | 1.02 | 0.195 | 0.117 | 0.187 | 0.0408 |
| GGATTCG | 0.0963 | 0.0373 | -0.659 | -0.017 | 0.0213 | -0.626 | 0.176 | 0.0144 | 0.11 | -0.0613 |
| ATAAGTG | 0.065 | 0.0665 | -0.708 | -0.613 | 0.0237 | -1.1 | 0.249 | 0.00779 | 0.0687 | 0.0151 |
| ACACCTG | 0.103 | 0.0718 | -0.396 | -0.365 | 0.199 | -0.67 | 0.275 | 0.154 | 0.0677 | 0.0411 |
| TTTATCG | 0.00306 | 0.00378 | -0.835 | -0.545 | -0.0168 | -1.11 | 0.148 | -0.134 | -0.0124 | -0.0308 |
| AACGTCT | -0.0189 | -0.0271 | -0.351 | -2.52 | -0.0611 | -0.374 | -0.433 | -0.0639 | -0.0106 | -0.152 |
| GCTCGTG | -0.0466 | -0.118 | -0.63 | -0.424 | -0.111 | -0.868 | 0.0502 | -0.0155 | -0.063 | -0.0826 |
| GGTAACG | 0.148 | 0.0235 | -0.44 | -0.344 | 0.0657 | -0.419 | 0.182 | -0.0747 | 0.0294 | -0.000201 |
| TTGGTCC | 0.0181 | 0.0754 | 0.246 | -0.172 | 0.0264 | -0.162 | -0.152 | -0.11 | 0.093 | -0.00311 |
| CCGCGTC | 0.0351 | 0.00333 | -0.227 | -0.473 | 0.11 | -0.744 | 0.268 | 0.0634 | 0.05 | -0.00258 |
| TCATTTA | -0.261 | -0.0581 | -0.165 | -1.49 | -0.143 | -0.647 | -0.266 | -0.104 | -0.244 | -0.15 |
| CTGCCTT | -0.0867 | -0.181 | -0.168 | -1.55 | -0.207 | -0.225 | -0.256 | -0.0336 | -0.0494 | -0.0359 |
| GTGAACC | 0.0485 | 0.122 | 0.412 | 0.942 | 0.11 | 1.79 | 0.11 | 0.183 | 0.125 | 0.119 |
| GAGGTGT | 0.144 | 0.0366 | 0.389 | 0.629 | 0.131 | 1.14 | -0.295 | 0.109 | 0.105 | 0.228 |
| ATCACTT | -0.0585 | -0.279 | -0.156 | -2.27 | 0.0157 | -0.451 | -0.568 | 0.0657 | -0.0772 | -0.0724 |
| TATGCCC | -0.0298 | -0.0315 | -0.18 | -0.535 | 0.00977 | -0.968 | 0.0263 | -0.0251 | 0.104 | -0.118 |
| ACAAATC | 0.137 | 0.188 | 0.115 | -0.0153 | 0.137 | -0.646 | 0.197 | 0.2 | -0.0864 | 0.177 |
